Sequences and labels used below:
B1: LINE1-full (parent)
chain: UACGUAGGUGGUUUUCCCCUGAUAGUGCUAAGGGGGCCUGGAAGUUUGGACUGGGCAGAGCUCAACACAGCGUGGCAAAGUGGCUGUGGCUAGACUGCCUCUCUGGAUUCCUCGUCACUCAGCAGGGCAUCUCUGAGAGAAAUGCC

Drawing on the RNAGym collection of RNA variant scans (doi:10.7554/elife.90254), this text covers self-cleavage for 167 variants.

The source gives no read counts; variants with many changes may rest on few reads.

Variants of B1 are the subject of this series. Nature of the series: self-cleavage, relative activity (ratio to wild type); higher = more cleavage; in vitro, sequencing; the parent is a self-cleaving ribozyme.
A42U U46A C90U A129G A141G: the self-cleavage is 0.03.
As for A42G U102C A117G, the figure is 0.44; as for A43G A59G U130G U132A, 0.3.
The value for A43G A64G U85C was 0; that for G44A U100C U132C was 2.05; that for A43G G83C A136G was 1.65.
As for G41A A79G A92G U96A, the figure is 0.12; as for A43G C111U A141G, 1.23.
For the variant A43G U45G A94G U134C, the self-cleavage stood at 2.45.
As for A43G U46C A121C, the figure is 0.68; as for A43G U62A U91G A107G A140U, 0; as for A42G A92G A94G, 0.31.
The value for G41A U62C A64G was 0.13; that for A42G U52A U100C A136G was 2.58; that for A42U U62C A78G U85A U104A was 0.01.
As for A42U A65G U132C, the figure is 0.04.
Regarding A42G A43G A57G G82A A94G U100A, the self-cleavage is 0.
As for A42G A57G A79G U87G, the self-cleavage turned out to be 0.
As for A42G U47C C103A, the figure is 1.36; as for A43G U62C A64C C71A A138U U143A, 0.04; as for A43G U108C C145U, 0.92.
The value for A42U U62G A79G A129U was 0.05; that for A43G A107G U130A A140G was 1.08.
The value for A43G U45C U96C A121U was 0; that for A43G A64G U134C was 0.73.
On to A43U U45C A65G A117U A138U, for which the self-cleavage was 0.74.
As for A42U A77U U115C, the figure is 1.49; as for A42G U62C C99U U109A, 0.06; as for A42G U104A U134C, 0.99.
For A43G U45G C71A, the self-cleavage amounted to 0.19.
As for A43G A77G A129U, the figure is 1.1; as for A43G A77G A129C, 1.53; as for A43U C98U C118U A140U, 0.22.
As for A42G A43G U47C A107G, the figure is 1.84; as for A43G U45A A78G A138G, 1.2.
As for A43G A79G A117G U143C, the figure is 0.92.
With A43G U62C C118A, the self-cleavage was 0.21.
The value for G40A U87A U96A was 0.03; that for A42G U62C A69G G93C was 0; that for A42G A92U A129G was 0.79.
The value for A43U U96C U112C A124C was 0; that for A42G U81A U85C was 0.48.
The value for A43G U85C U96C was 0; that for G44C U81C U85C was 0.41.
For the variant A43G C56A A67G A69U, the self-cleavage is 0.09.
G40U U47G A64U: the self-cleavage turned out to be 0.6.
Consider A43G U119C U134C, for which the self-cleavage came to 0.61.
As for A43U U62C G97A, the figure is 0.02.
The value for A42G U87A U115C was 0.22; that for A43G C66U A69G U73A U115C U130C was 0.05.
As for G41A A65G G74A, the self-cleavage stood at 0.02.
Take G41U A50G U85A U143C: the self-cleavage came to 0.03.
As for G40U A42G U102C, the figure is 1.35; as for A42G C61U U108C, 0.03.
The value for A42U U62A A129G was 0.02; that for G40U A43G A78G U143A was 0.94; that for A43G U52A A141G was 1.46.
As for A43G U45G U73A, the figure is 1.25.
Regarding A42G U47C A77U, the self-cleavage is 1.33.
As for A43G C76U U109C U134C, the figure is 1.99.
Turning to G40U U73C A79U A138G, the self-cleavage was 2.32.
The value for A43G A77G U108C was 0.
As for A42U U87A U108C, the figure is 0.01; as for A43G U45A A129G U134C, 1.48.
For the variant A42U A65G U96C G139A A140G, the self-cleavage came to 0.
As for A42G U45A A69C C110U, the figure is 0.06; as for A43U G58A A67G U104C U112C, 0.
With G40A U109A C123U U132C, the self-cleavage is 1.23.
With G40U A59G A92U A138G, the self-cleavage stood at 0.
On to G41U U73A U102C U115A, for which the self-cleavage came out at 1.33.
As for A42G U46C U96C, the figure is 0.79; as for A42G A59G C146U, 0.18.
The value for A42G U85C A142G was 0.41; that for A42G C63U A64U C71U U85C was 0.07.
The value for A42G G53C A142G was 0.89.
Regarding A42G A57U U91C A129G, the self-cleavage came to 0.18.
The value for A43G U62C A124G U143C was 0.13; that for A42G U108C U130C U132C was 2.7; that for A42G U45C U46C U143C was 2.63.
The value for A42G A43U A117G was 1.37; that for A43G U47A A57G U62A A94G was 0.
On to A42G C51U U143A, for which the self-cleavage amounted to 1.55.
For A42G G49A A69U, the self-cleavage was 0.05.
As for A43G A57G G93A A140G, the figure is 0.1; as for A43G U108C A124G, 1.93.
As to A42G A57G A129U, the self-cleavage was 2.37.
The value for G40A U102C G137U A138G was 1.37.
The value for A42C G88A A107G U134C was 0.07; that for A42G A50G U115A A136G was 1.53.
As for G44A U108C U109C U134C, the figure is 1.84; as for G41A U81A A141G, 1.72.
As for A43G A78G U134A, the self-cleavage was determined as 1.16.
As for A43G U85C U112A A121G G135A, the figure is 0.2; as for A42G A94G A107G, 0.37.
Consider A42G A94U A129U, for which the self-cleavage was found to be 0.28.
For the variant A42G U132A C145A, the self-cleavage stood at 1.67.
With A43G U45C A140G, the self-cleavage came to 2.04.
For the variant A43G U73C U112C, the self-cleavage came to 0.
The value for A43G U112C U119C was 1.62; that for A43U U96C U115A U130A A136C was 0.06.
Consider A43G C118A U119C, for which the self-cleavage worked out at 0.4.
As for A42G U119G A141G, the figure is 0.79.
The value for A43G U96C U112C was 0; that for A42G U45C U143C was 1.73; that for A43G U100C A140U was 1.25.
As for A42G A43U U96A U104C, the figure is 0.1; as for A42G A50G A78G A140U, 0.97.
Regarding A43G U47C A136G A140U, the self-cleavage turned out to be 2.21.
Turning to A43G A79G G89A A94G U112C, the self-cleavage turned out to be 0.
In the case of A42G C56U U81C U119C, the self-cleavage was found to be 0.18.
The value for G41A A79G U104C was 1.08.
As for A43G U52C A69G A124U, the self-cleavage is 2.63.
For the variant G40U A121C A142G, the self-cleavage was determined as 1.56.
As for G40A U62C A107G A140U, the figure is 0.02; as for A43G G53U A124G, 0.92; as for A42G A79U A94G C123A, 0.35.
On to A42G C76U U100C, for which the self-cleavage came out at 1.55.
Turning to G41A U87C U104C, the self-cleavage was determined as 0.25.
A43U G70A U73C A138G: the self-cleavage is 0.66.
The value for A43G G60C G75A C110A was 0.01.
The value for A42U U73C U81A C98G was 0.14; that for A43G U108C A136U was 1.53.
As for G44A A117U A138G, the self-cleavage stood at 1.82.
As for A43U U134G G144C, the figure is 1.3.
For the variant A42G A65G A79G, the self-cleavage came out at 0.21.
As to G41A G74U U108C A141G, the self-cleavage is 1.88.
As to A43G A78G U115A, the self-cleavage turned out to be 1.4.
On to A42U A43G U87A U115A G122U A138G, for which the self-cleavage came out at 0.08.
As for A42G U45C A64U U100C U104A A138G, the figure is 0.21; as for A42G U45G A78U A94U U96A C146U, 0.06.
Consider A42U A138G C146A, for which the self-cleavage was 0.72.
With A43G U45A U96C C103U A141G, the self-cleavage was 0.12.
The value for A43G A69U C95U was 0; that for A42G U100A A117U was 0.69; that for A42G A57U G114A U130C was 0.13.
As for A42G A121U A140C A142G, the figure is 1.58; as for A43U A64U A79C U102C A140G, 0; as for G40A G72A U115A U134C, 0.87.
As for A42G A79G U87C, the figure is 0.66.
Turning to G41A C120A U143C, the self-cleavage is 1.17.
As to A43U A117G U143A, the self-cleavage was determined as 1.44.
The value for A43U G44A A107G U115C was 0.77.
Take A42G A64G G74A U81C U104C A129U: the self-cleavage came to 0.15.
For A43G G75A A94G A124U, the self-cleavage is 0.12.
In the case of A43G U115A U130C, the self-cleavage amounted to 0.77.
In the case of A43G U62A U102C, the self-cleavage was 0.06.
Turning to A43U A65G U130C, the self-cleavage is 0.17.
As for G40U U46C A64U C76U A142G, the figure is 0.67; as for A43G U100A U112A, 1.05.
On to A42G A64U A124G, for which the self-cleavage was determined as 0.
As for A43G A65G A94G A141G, the self-cleavage was found to be 0.
The value for A43G U47C C116U A121G A142G was 1.42; that for A43U G53A U102C was 1.12; that for A43G A59G U85C C123U was 0.
As for G44U A121G U134C, the figure is 1.59; as for A43G C63U U87A, 0.06.
As for A43G U62C A129U, the figure is 0.06.
With A42G C116U U134A A141G, the self-cleavage is 1.17.
For G40A U62C U109C, the self-cleavage came to 0.09.
As for A42U A57G A65G U102C A129U A140G, the figure is 0.
Regarding G41A A79G U109C A142U, the self-cleavage came out at 0.9.
As for A43G G137A A141G, the figure is 1.01.
As for A42G A64G U87C U119A A129U, the figure is 0; as for A43G U87C A124U U143C, 0.08; as for A43G A69U G144A, 0.12.
Regarding A43G U45C U112A, the self-cleavage amounted to 1.91.
A43G U45C A65G A138G U143C: the self-cleavage turned out to be 0.
